# Test results taken from the supplement of paper PMC11417369.
# ± gives the standard deviation of the averaged measurements. Some of the results follow.
# System: PfAP2-G AP2 domain (GST-tagged)
# Assay: gcPBM binding intensity (ln(normalized median fluorescence intensity)); higher = stronger DNA binding
# How it was run: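 Binding of GST-tagged P. falciparum DNA-binding domains, expressed in E. coli and used at about 25 μg on average, was carried out for 1 h in 1× PBS containing 1% milk, 0.2 mg/ml BSA, 0.5% salmon testes DNA and 0.03% Triton X-100. The target was an Agilent 4 × 180k array of primer-extended double-stranded 36-bp intergenic genomic probes plus negative controls, read with Alexa488 anti-GST antibody at 488 nm. Binding intensity is the highest Masliner-normalised natural-log median intensity across replicate spots of either probe orientation.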
row,Sequence,gcPBM binding intensity (ln)
1,TTTAAGAATTAACGGGGTACAATTCTTAAATATATA [XGTACX_site669],11.4 ± 0.98
2,AATCAAAATAATTTAACACACAATTTTAATACTGTT [CACACA_site2375],9.77 ± 0.16
3,ATGTGATAGAAGTACACACACATATGTATTTATAAT [CACACA_site5075],11.7 ± 1.1
4,TAATTATAATAAATATTCATATGTTCAAATATATAT [CACACA_negctrl_site151],9.715 ± 0.007
5,TGTTTTATTTTTTTTGTGCACATACCTTTAGCATCA [GTGCAC_site9812],10.5 ± 0.14
6,AAATAAATATAAATAAATAAATAAATAAATATATAT [CACACA_negctrl_site827],9.68 ± 0.23
7,GCTCTTTTGTTATGGTGTACCCTCCATGTAACATAA [XGTACX_site91],11.4 ± 1
8,TTAATAATTCTTAAAAGTACATAACTTTTTTTTTTT [XGTACX_site751],11.1 ± 0.68
9,TCTTACGGATTCATTGTGCACATATATATATATATA [GTGCAC_site9896],10.7 ± 0.36
10,TTTGTTGACAGACACACACACATACATATATATATA [CACACA_site2288],10.2 ± 0.22
11,TATAATAATATAATGGTGCATGTATATAACCATATA,10.3 ± 0.16
12,TATATATAATTCATACATTTTAAATATATTTATTTA [CACACA_negctrl_site840],9.77 ± 0.042
13,TTTTAAAAACGGCATGCATGTAATACATGGAAGGAA [TGCATGCA_site480],10.17 ± 0.085
14,TTTAAAAAAATTCATGCACACGAAATAAAAAGCACC [CACACA_site8214],10.5 ± 0.35
15,TCTTTTATGCACATTGAGTAAACAACATATTTTTAA [TGCATGCA_negctrl_site561],10.1 ± 0.21
16,ATTTTTATAGAAATATGTACACAATATGTATATATT [XGTACX_site7993],11.3 ± 0.9
17,TTAATATAGATATAACCACACACATACATCTAATTC [CACACA_site8519],10.09 ± 0.078
18,TTTTTTATTAAAAGTAGTACACATGAAAAAAAAAAA [XGTACX_site5524],11.8 ± 1
19,TGTATTTTTAACATATGTACGAATAGCACGTGTTAT [XGTACX_site3640],10.9 ± 0.58
20,TAAAAATGGGAGGGGTGTACTACACAATAAAATTAT [XGTACX_site5641],11.6 ± 0.95
21,ATTTTTTTATACAATTTTATATATTAAATATTATAA [GTGCAC_negctrl_site86],10.1 ± 0.46
22,TATTTTATATGATAGGTGCATTTTTTTTTTTTTTTT [GTGCAC_site9757],10.4 ± 0.48
23,CTTGACCCCCTTTGTTGTACTGACATTTGTGAGCTT [XGTACX_site591],11.3 ± 0.86
24,ATTTTTTCAAAATGGAAAACTTATCAGTGAAAAAAA [CACACA_negctrl_site1087],10.1 ± 0.085
